# Results published in ChEMBL document CHEMBL4888484, “Replenishing the malaria drug discovery pipeline: Screening and hit evaluation of the MMV Hit Generation Library 1 (HGL1) against asexual blood stage Plasmodium falciparum ,using a nano luciferase reporter read-out” (2022).
# Several values for one entry are separate records, joined by “and”; a condition that tells them apart may be missing. Identical values can stand only once. Hit rate of the full screen: of about 150,000 compounds, about 540 (0.36%) showed an effect of 50% or more. This is one part of the list.
# Test system: Plasmodium falciparum
# Experiment: Primary screen in NF54 nanoGlo assay, in single point, at 2uM, 72h; a lower Z score goes with more inhibition
# Type: functional, Erythrocyte
# Conditions: timepoint 72 hour
Structure (SMILES),% Inhibition,Z score,% Inhibition (2 µM)
O=C(c1cc2ccccc2o1)N(c1cccc(F)c1)C1CCOCC1,-16%,1.72,–
O=C(c1cnn2c1CCCC2)N1CCN([C@H]2CCN(Cc3ccccc3)C2)CC1,0%,-0.06,–
CCCC(=O)N1CCC(C(=O)NC(C)(C)C)CC1,-16%,2.36,–
Cc1ncc(CO)c2c1NC(C)(C)OC2,-8%,0.7,–
Cc1cc(O)nc2nnc(-c3ccc(Br)cc3)n12,-10%,0.85,–
COc1ccc(NS(=O)(=O)c2ccc(NC(=O)C(c3ccccc3)c3ccccc3)cc2)cc1,7%,-1.15,–
CCn1nc(CC(C)C)cc1C(=O)N(C)Cc1nc2ccccc2n1C,-23%,2.3,–
COc1cc2c(cc1OC)C(NC(=O)C[C@@H]1NC(=O)N(c3ccccc3)C1=O)CC2 (some centres not stated),-3%,0.45,–
O=C(Nc1cnc(Oc2ccccc2)nc1)Nc1ccccc1Cl,5%,-1.01,–
COc1ccccc1-c1nc2c(OCc3ccccc3)cccn2c1NC(C)(C)C,-15%,1.44,–
CS(=O)(=O)c1cccc(C(=O)N2CCNC(=O)C[C@H]2c2ccccc2)c1,-9%,1.21,–
COc1ccccc1OCC(=O)OCc1nc(O[C@@H](C)c2ccccc2)ccc1Cl,16%,-2.18,–
O=C(NC[C@H](O)c1ccoc1)c1ccoc1,-5%,0.78,–
c1ccc(-c2nnc(OCc3nc(C4CCCC4)no3)o2)cc1,0%,0.05,–
CCOc1cc(N2CC(C)C2C)ncn1 (configuration not stated),-30%,3.54,–
CC(C)S(=O)(=O)N1CCN(C(=O)C[C@@H]2NC(=O)N(c3ccccc3)C2=O)CC1,–,–,-5% and -1%
Cc1ccc(C)c(-c2cn3c(C(=O)N(C)[C@H]4CCOC4)csc3n2)c1,-10%,1.41,–
C[C@]1(c2cccc(C(=O)O)c2)Nc2ccccc2-c2nnnn21,5%,-0.68,–
COc1ccc(Cc2c(N)nc(Cn3cncn3)nc2N)cc1,29%,-3.8,–
C[C@@H]1NC(=O)N(c2ccccc2NC(=O)c2cccn2C2CC2)C1=O,-6%,0.63,–
CC(C)=CC1C(C(=O)N2CCOC(C(N)=O)C2)C1(C)C (configuration not stated),-8%,0.98,–
COCc1nnc(CNC(=O)N[C@H]2CCCc3ccccc3C2)[nH]1,-6%,1.24,–
CC1CCN(c2nn(CC(=O)Nc3ccc(C(C)C)cc3)c(=O)c3ccccc23)CC1,-21%,3.12,–
CC(C)(O)Cn1cnc(-c2ccccc2)n1,-7%,0.93,–
N#Cc1ccc2c(c1)C(=O)[C@H](C#N)C(=O)N2Cc1ccccc1,-1%,0.23,–
CC1CCCC(C)N1C(=O)CN1C(=O)NC2(CCCC2)C1=O (configuration not stated),-1%,0.14,–
Cn1c(C(=O)NCc2ccc3[nH]cnc3c2)cc2ccc(Cl)cc21,-16%,1.43,–

Structure (SMILES),% Inhibition,Z score,% Inhibition (2 µM)
COCC1(S(=O)(=O)Nc2ccc(Cl)cc2-c2nnn[nH]2)CC1,-9%,1.43,–
Cc1c(Cl)cccc1-n1nc(Cn2cncn2)nc1[C@@H]1CCCCO1,-1%,0.14,–
Cc1nc(NC(=O)c2ccc3c(c2)C(=O)N(C2CCCC2)C3=O)sc1C,-9%,1.11,–
Cc1ccccc1NC(=O)CN1CCN(CC(=O)c2ccco2)CC1,-3%,0.58,–
Cn1nc(C2CC2)nc1C(=O)NCC1(C)CCCC1,-14%,2.68,–
COc1ccc(-c2nn(-c3ccccc3C)cc2CN(C)C2CCOCC2)cc1F,1%,-0.15,–
Cc1cc([C@@H](O)CCNC(=O)C(=O)Nc2cccc(N3CCCC3=O)c2)c(C)o1,-13%,1.71,–
CCC(C)NC(=O)C1COC2(CCN(C(=O)c3ccc4c(c3)OCO4)CC2)N1C(=O)c1ccc(C)cc1 (configuration not stated),-12%,1.93,–
COc1ccc(Cc2nn(CN3CCC(C(=O)Nc4ccc(C)cn4)CC3)c(=S)o2)cc1,21%,-2.69,–
CNS(=O)(=O)[C@H]1CCN(Cc2cc(Cl)ccc2F)C1,-4%,0.49,–
Cc1noc(C)c1CN1CCn2c(C)nnc2[C@@H]1C(=O)N1CCCC1,4%,-0.64,–
CN(Cc1cscn1)C(=O)NCc1ncnn1C(C)(C)C,-7%,1.06,–
C=CCCS(=O)(=O)N1CCCC[C@H]1C(=O)CC,-14%,1.61,–
CCn1ccc(C(=O)N2CC3(C[C@H](N4CCOCC4)CO3)C2)n1,-19%,2.95,–
Cc1cc(O)nc(C=Cc2cn(C(C)(C)C)nn2)n1,-22%,2.53,–
C[C@H](C(=O)N1CCc2c(nc[nH]c2=O)C1)C(C)(C)C,-13%,2.28,–
CCn1cccc(CNC(=O)c2ccc3c(c2)[C@@H](C)CO3)c1=O,-16%,2.37,–
CCN(C(=O)c1cn(C(C)C)nc1C)c1cccc(C)c1F,-3%,0.48,–
CNC(=O)Nc1cc(C)cc2c(-c3ccccc3)c(C(=O)NCc3cccc(F)c3)[nH]c12,38%,-4.3,–
CCOc1ccc(CNC(=O)c2ccc3cnn(Cc4ccc(F)cc4)c3c2)cc1,-21%,1.82,–
CCCCNC(=O)c1ccc(-c2c[nH]nc2C)o1,-10%,1.14,–
OCCn1nc(Cc2c(Cl)cccc2Cl)nc1C1CCC1,-7%,1.02,–
Cc1ccc(OC[C@H]2CN(Cc3cccs3)CCO2)cc1,-5%,0.78,–
CC(=O)Nc1cc(NC(C)=O)cc(-c2nc(C(C)C)nn2-c2ncccc2C)c1,-17%,2.27,–
CCC(C)NC(=O)Cn1cnc2nc(N3CCCC(C(=O)NC(C)C)C3)sc2c1=O (configuration not stated),-18%,1.57,–
O=C([C@H]1C[C@@H]1c1ccccc1)N1Cc2ccccc2OC(c2ccccc2)C1 (some centres not stated),4%,-0.84,–
CC(C)(C)c1nc(CN2CCN(S(=O)(=O)c3cccnc3)CC2)no1,-4%,0.83,–
